About 230 (0.21%) of roughly 110,000 compounds showed an effect of 50% or more. The list shows a part of the results.
Each molecule was assayed against DPAP1 (Plasmodium falciparum, UniProt Q8IIJ9) (assay: primary screen, percent inhibition; read by cleavage of a fluorogenic dipeptide substrate; higher = more effect of the substance).
Design: species or system P. falciparum D10 trophozoite lysates; single well
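Further: 30 min substrate incubation versus DMSO and 10 µM JCP410 controls.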

Chain of DPAP1 (Q8IIJ9 whole entry, looked up): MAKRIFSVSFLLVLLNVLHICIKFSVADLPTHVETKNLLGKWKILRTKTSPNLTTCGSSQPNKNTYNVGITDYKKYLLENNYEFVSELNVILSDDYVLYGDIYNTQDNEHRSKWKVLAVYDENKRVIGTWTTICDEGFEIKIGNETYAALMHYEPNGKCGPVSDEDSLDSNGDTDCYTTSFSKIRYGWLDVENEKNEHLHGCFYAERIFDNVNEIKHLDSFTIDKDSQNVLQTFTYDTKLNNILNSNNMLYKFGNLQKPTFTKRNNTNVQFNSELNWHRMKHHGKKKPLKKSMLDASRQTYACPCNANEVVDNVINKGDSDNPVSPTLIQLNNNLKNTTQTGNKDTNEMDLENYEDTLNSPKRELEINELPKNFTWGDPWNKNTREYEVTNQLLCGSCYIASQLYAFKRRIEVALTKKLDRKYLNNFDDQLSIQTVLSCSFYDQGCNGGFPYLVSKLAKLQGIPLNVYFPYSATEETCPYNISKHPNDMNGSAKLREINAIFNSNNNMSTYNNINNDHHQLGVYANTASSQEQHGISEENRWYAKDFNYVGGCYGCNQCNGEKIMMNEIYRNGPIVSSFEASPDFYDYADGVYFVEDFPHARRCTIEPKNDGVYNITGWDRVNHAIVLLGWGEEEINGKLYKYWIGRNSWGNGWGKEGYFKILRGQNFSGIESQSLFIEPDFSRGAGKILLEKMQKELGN

| Compound | % Inhibition @ 10 uM [%] |
| --- | --- |
| CC(=O)NC1=C(NCc2ccccc2)CC(C)(C)CC1=O | 11 |
| COc1ccc(CNC(=O)C2CC(C)=CCC2C(=O)O)cc1 (stereo not drawn) | 1.96 |
| COc1ccc(-c2cc(C)no2)cc1S(=O)(=O)N1CCCC(CN2CCc3ccccc3C2)C1 (stereo not drawn) | -4.57 |
| Cc1c(Br)c(C(=O)NCc2cc3cc(Cl)ccc3[nH]2)nn1C | 3.72 |
| CCn1nc(C)c2c(C(F)(F)C(F)(F)F)cc(=O)n(CC(=O)O)c21 | 3.1 |
| CN(CC(=O)N1CC(=O)N(CCc2ccccc2)C(=O)C1)S(=O)(=O)c1cccc2nsnc12 | -5.1 |
| CCc1nn(C(CC)C(=O)NCc2ccccc2C)c(=O)c2cc3oc(C)cc3n12 (stereo not drawn) | -7.54 |
| CCC(Oc1ccccc1)C(=O)Nc1ccc(C)cc1 (stereo not drawn) | -6.57 |
| CCn1nccc1C(=O)NC(C)C1CC2CCC1C2 (stereo not drawn) | 0.142 |
| CCOc1ccc(CN2CCN(Cc3ccc4c(c3)OCO4)CC2)cc1 | -5.52 |
| CCO/C(O)=C1/C(C)=Nc2nc(SCc3ccccc3)nn2C1c1ccc(OC)cc1OC (stereo not drawn) | 1.68 |
| COC1(c2ccc(Cl)cc2)OC(=O)c2ccccc21 (stereo not drawn) | -5.01 |
| CCOc1cc(C2C(C#N)=C(N)OC3=C2C(=O)CCC3)ccc1O (stereo not drawn) | -8.11 |
| CC(Cc1ccccc1F)N1CCN(CCO)CC1 (stereo not drawn) | 1.57 |
| CCC(=O)Nc1sc(Cc2ccccc2)c(C)c1C(N)=O | -4.05 |
| C(#Cc1ccccc1)CN1CCN(C2CCCCC2)CC1 | -6.09 |
| COc1ccc(N2CCN(Cc3ccc(OC)c(C)c3)CC2)cc1 | -0.0404 |
| CCN(CC)c1nc(-c2ccccc2)c2cc(Cl)ccc2n1 | 2.05 |
| O=C(NCc1ccccc1)/C(=C\c1ccc(-c2ccc(Br)cc2)o1)NC(=O)c1ccccc1 | -3.98 |
| O=C(Cn1cnc2ccc(Br)cc2c1=O)c1cccs1 | -1.32 |
| COc1ccc(CCNC(=O)c2cc3c(=O)n4cccc(C)c4nc3n2C)cc1OC | 1.39 |
| CC1=C(C(=O)Nc2cccnc2)C(c2ccc(F)cc2)C2=C(O)CC(c3ccccc3)CC2=N1 (stereo not drawn) | 0.687 |
| CSC1=NSC2=NC(=O)/C(=C\c3cc(C)n(-c4ccccc4)c3C)C(=N)N12 | -0.503 |
| C#CCOC(=O)c1ccccc1C(=O)Nc1ccc(Br)cc1 | -2.62 |

| Compound | % Inhibition @ 10 uM [%] |
| --- | --- |
| OCCN1CCN(Cc2ccc(O)cc2)CC1 | 0.526 |
| Cc1c2cnn(CC(=O)NCCCN3CC(C)CC(C)C3)c(=O)c2c(C)n1Cc1ccccc1 (stereo not drawn) | -3.96 |
| c1ccc(C2CCC(NCCCN3CCOCC3)CC2)cc1 (stereo not drawn) | 4.75 |
| O=C(CCCC(=O)c1ccccc1)Nc1nc[nH]n1 | 0.238 |
| CCOc1ccccc1C(=O)Nc1cccc(Cl)c1 | -3.49 |
| CCO/C(O)=C1/C(C)=NC2=C(C(=O)CC(c3ccccc3)C2)C1c1ccc(Cl)cc1 (stereo not drawn) | 1.43 |
| N#Cc1ccc(Oc2ccc(C(=O)OCC(=O)c3ccccc3)cc2)cc1C#N | -6.2 |
| CC1CC(C)CN(C(=O)CNS(=O)(=O)c2ccc(Br)s2)C1 (stereo not drawn) | -3.36 |
| CCn1nc(NC(=O)c2cccc(Cl)c2)c2cc3cccc(C)c3nc21 | -4.42 |
| Cc1cccc(-c2cc(C(=O)Nc3cccnc3)c3ccccc3n2)c1 | 13 |
| O=c1oc2ccccc2n1-c1nc2ccccc2o1 | 0.687 |
| CC(=O)C1(c2ccccc2)CCN(S(=O)(=O)c2ccccc2F)CC1 | 5.43 |
| COCCNC(=O)C1CCCN(S(=O)(=O)N(C)C2CCCCC2)C1 (stereo not drawn) | -2.86 |
| Cc1ccc2nc(O)c3cc(C(=O)NCCCN(C)Cc4ccccc4)sc3c2c1 | -1.66 |
| Cc1nn2c(=O)cc(COc3ccc(/C=C(\C#N)c4nc5ccccc5[nH]4)cc3Cl)nc2s1 | -2.19 |
| Cc1cc(-c2ccc(C(C)C)cc2)n(-c2ccccn2)n1 | -3.13 |
| O=C(Cn1cnc2ccccc2c1=O)c1ccccc1 | -4.67 |
| Cc1cc(C)nc(NS(=O)(=O)c2ccc(Nc3nc(-c4sc(N)nc4C)cs3)cc2)n1 | -0.088 |
| Cc1cc(Oc2ccc(=O)n(C)n2)nc(SCc2ccccc2)n1 | 1.31 |
| O=C(Cc1ccccc1)Nc1ccc(C(=O)O)cc1 | 10.6 |
| CC(C)C[C@H](NC(=O)[C@@H]1CSC(=S)N1)C(=O)NCC#N | 1.71 |
| O=C(NCc1cccn1Cc1ccccc1)NC12CC3CC(CC(C3)C1)C2 | 2.65 |
| C=CCc1cccc2cc(-c3nc4ccccc4[nH]3)c(=O)oc12 | -2.6 |
| O=C1C2C(C(=O)N1CC13C[C@H]4C[C@@H](C1)C[C@@H](C3)C4)C1C=CC2C12CC2 (stereo partly drawn) | -8.64 |

| Compound | % Inhibition @ 10 uM [%] |
| --- | --- |
| COc1cccc(C2C(C#N)=C(N)Oc3[nH]nc(-c4ccc(C)cc4)c32)c1 (stereo not drawn) | -0.968 |
| Cc1ccccc1Cn1c2ccccc2c2cnn(CC(=O)NCCN3CCN(C)CC3)c(=O)c21 | 9.33 |
| c1c(CN2CCCCC2)n[nH]c1C1CCCCC1 | 0.0345 |
| O=C(NCCCN1CCOCC1)C1CCN(S(=O)(=O)N2CCC3(CC2)OCCO3)CC1 | -1.21 |
| COc1ccccc1OCC(=O)Nc1sc2c(c1C(=O)NCc1cccnc1)CCCC2 | 5.66 |
| Cc1c(C(=O)Nc2ccc3ccccc3c2)cnn1-c1ccccc1 | 1.57 |
| CCCCN1C(=O)/C(=C\Nc2ccc(Cl)cc2)C(=O)N(Cc2ccco2)C1=O | -4.75 |
| CC(C)c1ccc(/C=C2/SC(=O)NC2=O)cc1 | 3.66 |
| O=C(NCc1ccc2c(c1)OCO2)C1CCCN(S(=O)(=O)N2CCOCC2)C1 (stereo not drawn) | 1.45 |
| CCCCC(=O)Nc1nonc1-c1ccc(OCCC)c(OCCC)c1 | 0.248 |
| Cn1c(=O)n(Cc2ccccc2)c(=O)c2c1nc(Cl)n2Cc1ccccc1 | -2.26 |
| CCC(C)OC(=O)C1=C(C)NC(=O)CC1c1ccc(Br)cc1 (stereo not drawn) | -2.24 |
| O=C(Nc1cc(Cl)cc(Cl)c1)c1ccc(Br)cc1 | -0.856 |
| CCOC(=O)c1c(C)[nH]c(C)c1S(=O)(=O)NCC(=O)NCc1cccs1 | -2.13 |
| Cc1nn(-c2ccc(C34CC5CC(CC(C5)C3)C4)cc2)c(O)c1/C=N/c1ccc(S(N)(=O)=O)cc1 | -2.64 |
| O=C(Nc1ccc2c(c1)C(=O)NC2=O)c1ccc(NC(=O)c2ccco2)cc1 | -3.45 |
| CC(C)(C)C1CCc2c(sc(NC(=O)c3ccco3)c2C(N)=O)C1 (stereo not drawn) | 3.17 |
| O=[N+]([O-])c1ccc(-c2cnc(-c3ccccc3)nc2)cc1 | 1.91 |
| CCOC(=O)c1cc(-c2ccccc2)n(-c2ccc(OCC)cc2)n1 | 0.408 |
| CCc1ccc(-c2cc3c(=O)n(CC(=O)NCCCc4ccccc4)nc(C)n3n2)cc1 | 0.623 |
| O=C(Cn1c(=O)n(Cc2ccccc2)c(=O)c2sc3ccccc3c21)NC1CCCCC1 | 5.09 |
| COCCNC(=O)CS(=O)(=O)Cc1nc(-c2ccc(C)cc2)oc1C | -0.138 |
| O=C(COCc1cc(-c2cccs2)on1)NCCc1ccccc1 | 1.86 |
| CCOc1ccc(CNC(CC(C)C)C(=O)O)cc1 (stereo not drawn) | 1.42 |

| Compound | % Inhibition @ 10 uM [%] |
| --- | --- |
| Cc1cc2c(c(=O)n1Cc1cccnc1)C(Cc1ccccc1)C(C#N)=C(N)O2 (stereo not drawn) | -3.14 |
| COc1cc(/C=C2\SC(Nc3ccccc3)=NC2=O)ccc1OCC(=O)O | 2.92 |
| COc1ccc(Cl)cc1-n1cccc1/C=C1/C(=N)N2C(C)=CSC2=NC1=O | -3.35 |
| Cc1oc(-c2cccs2)nc1CN1CCCC(C(=O)NC2CCCc3ccccc32)C1 (stereo not drawn) | 0.689 |
| CCN(CC)CCNC(=O)c1ccc(CS(=O)(=O)c2ccc(Br)cc2)o1 | 2.14 |
| O=C(CSCc1cnn(-c2ccccc2)c1-n1cccc1)NCC1CCCO1 (stereo not drawn) | 5.42 |
| COc1cc(OC)cc(C(=O)N2CCN(Cc3cc(OC)c(OC)c(OC)c3)CC2)c1 | -6.64 |
| CC1(C)CC(=O)C2=C(C1)NC(=O)CC2c1ccc(Cl)c(Cl)c1 (stereo not drawn) | -1.29 |
| COC(=O)c1ccc(C(c2c(O)oc3ccccc3c2=O)c2c(O)oc3ccccc3c2=O)cc1 | 7.95 |
| Cc1cccc(S(=O)(=O)Nc2cccc(-c3cn4cccnc4n3)c2)c1 | 0.13 |
| CCN(CC)CCn1c(SCC(=O)N2CCC(C)CC2)nc2c(sc3ccccc32)c1=O | 5.27 |
| COC(=O)C1=C(C)N=c2s/c(=C/c3ccc(Cl)cc3)c(=O)n2C1c1ccccc1 (stereo not drawn) | -2.91 |
| O=C(O)c1nccnc1C(=O)Nc1ccc(Cl)cc1 | 1.29 |
| COc1ccccc1C(=O)Nc1c(C(=O)N2CCN(C)CC2)oc2ccccc12 | -4.22 |
| Cc1ccc(-n2nc(C)c3c(C(=O)NCc4ccccn4)cc(C4CC4)nc32)cc1 | 3.53 |
| CCCCNC(=O)CCC(=O)N1Cc2ccccc2Oc2ncccc21 | -3.53 |
| O=C1CN=C(Nc2nc3ccccc3o2)N1 | 0.345 |
| CCCC1=NN2C(=N)/C(=C/c3ccc(O)c(OC)c3)C(=O)N=C2S1 | -6.69 |
| CCN(CC)CCN1CC(c2ccccc2)CC1=O (stereo not drawn) | -1.42 |
| Cc1nn(CC(=O)NCc2cccc(Cl)c2)c(=O)c2c1sc1ccccc12 | 2.06 |
| O=C(Cc1ccccc1)Nc1ccc(C(=O)c2ccccc2)cc1 | 0.686 |
| CCOC(=O)N1CCN(C(=O)C(C)n2ccc3cc(S(=O)(=O)N4CCCCCC4)ccc32)CC1 (stereo not drawn) | 4.32 |
| COc1ccc(-c2noc(C3CCN(C(=O)OC(C)(C)C)CC3)c2C(=O)O)cc1 | -2.83 |
| COc1cccc(CSc2nc3ccncc3n2CC(=O)NCCC2=CCCCC2)c1 | 2.45 |
